Data on 28 compounds can be found in the antibiotic and cytotoxicity screens of Wong et al. (2023).

The other results are listed elsewhere or left out.

The subject of this experiment is HSkMC (human skeletal muscle cells). The experiment can be described thus: cytotoxicity call (relative viability < 0.9). To be noted: 10 µM.
For `C[C@@H]1CN([C@@H](C)CO)C(=O)c2cc(NC(=O)c3ccccc3)ccc2O[C@@H](C)CCCCO[C@@H]1CN(C)Cc1ccc2c(c1)OCO2`, the cytotoxicity call is “inactive”.
The same measure for `Cc1ccc(S(=O)(=O)N(C)C[C@H]2OCCCC[C@@H](C)Oc3ccc(NC(=O)C4CCCCC4)cc3C(=O)N([C@H](C)CO)C[C@@H]2C)cc1`: “inactive”.
The same measure for `C[C@@H]1CCCCO[C@@H](CN(C)C(=O)Nc2cccc3ccccc23)[C@H](C)CN([C@@H](C)CO)C(=O)c2cc(NC(=O)Nc3ccccc3)ccc2O1`: “inactive”.
The same measure for `CC(=O)OCC[C@H](C)CCC=C(C)C`: “inactive”.
Consider `C[C@H]1CCCCO[C@@H](CN(C)Cc2ccc(C(F)(F)F)cc2)[C@@H](C)CN([C@@H](C)CO)C(=O)c2cc(NC(=O)CCC(F)(F)F)ccc2O1`, for which the cytotoxicity call is “inactive”.
The same measure for `CCOC(=O)C1=C(CN2CCOCC2)NC(c2nccs2)=N[C@@H]1c1ccc(F)cc1Br`: “inactive”; for `Cc1ccc(S(=O)(=O)N(C)C[C@@H]2OCCCC[C@H](C)Oc3ccc(NC(=O)Nc4c(C)noc4C)cc3C(=O)N([C@H](C)CO)C[C@@H]2C)cc1`: “inactive”.
The same measure for `Cc1noc(C)c1NC(=O)N(C)C[C@H]1Oc2ccc(NS(=O)(=O)c3ccccc3)cc2C(=O)N([C@H](C)CO)C[C@H]1C`: “inactive”; for `CN1C(=O)OC(C)(C)C1=O`: “inactive”.
With `C[C@H]1CCCCO[C@@H](CN(C)CC2CCCCC2)[C@@H](C)CN([C@@H](C)CO)C(=O)c2cc(NC(=O)Nc3ccc(F)cc3)ccc2O1`, the cytotoxicity call is “inactive”.
The same measure for `O=C(C[C@@H]1C[C@@H]2c3cc(NS(=O)(=O)c4ccc(F)cc4)ccc3O[C@@H]2[C@@H](CO)O1)NCc1cccnc1`: “inactive”; for `CC(=O)c1ccc(S(=O)(=O)N2[C@@H]3CC[C@@H](C3)[C@H]2c2nc3cccc(OCc4ccccc4)c3[nH]2)cc1`: “inactive”.
As for `C[C@H]1CN([C@@H](C)CO)C(=O)c2cc(NS(=O)(=O)c3ccccc3)ccc2O[C@@H]1CN(C)S(=O)(=O)c1ccc(F)cc1`, the cytotoxicity call is “inactive”.
The same measure for `Nc1ccc(O)c(C(=O)O)c1`: “inactive”.
The same measure for `C[C@@H]1CCCCO[C@@H](CN(C)Cc2ccc(C(=O)O)cc2)[C@H](C)CN([C@@H](C)CO)C(=O)c2cc(NC(=O)Cc3ccccc3)ccc2O1`: “inactive”.
The same measure for `C[C@H](O)C#Cc1ccc2c(c1)O[C@@H](CN(C)C(=O)Cc1ccccn1)[C@H](C)CN([C@H](C)CO)S2(=O)=O`: “inactive”; for `O=C(NCC(F)(F)F)C1CCNCC1`: “inactive”; for `CNC(=O)C[C@@H]1CC[C@H]2[C@@H](COC[C@@H](O)CN2C(=O)Nc2cccc(OC)c2)O1`: “inactive”.
Regarding `NCCCn1c2c(c3ccccc31)CCCC2`, the cytotoxicity call was “inactive”.
The same measure for `COC1CCNCC1`: “inactive”; for `Cc1ccc(S(=O)(=O)N(C)C[C@@H]2OCCCC[C@H](C)Oc3ccc(NC(=O)Nc4cccc5ccccc45)cc3C(=O)N([C@@H](C)CO)C[C@H]2C)cc1`: “inactive”; for `CC(C)C[C@H](NC(=O)[C@@H](Cc1c[nH]c2ccccc12)NC(=O)[C@H](Cc1ccc(O)cc1)NC(=O)[C@H](CO)NC(=O)[C@H](Cc1c[nH]c2ccccc12)NC(=O)[C@H](Cc1cnc[nH]1)NC(=O)[C@@H]1CCC(=O)N1)C(=O)N[C@@H](CCCNC(=N)N)C(=O)N1CCC[C@H]1C(=O)NCC(N)=O`: “inactive”.
The same measure for `CC(=O)OCC(=O)C12OC(C)(C)OC1CC1C3CC(F)C4=CC(=O)C=CC4(C)C3(F)C(O)CC12C` (stereo not drawn): “inactive”.
The same measure for `C[C@@H]1CCCCO[C@H](CN(C)Cc2ccc(Cl)c(Cl)c2)[C@H](C)CN([C@@H](C)CO)C(=O)c2cc(NC(=O)CCC(F)(F)F)ccc2O1`: “inactive”; for `C=CCOC(=O)[C@@H]1[C@H]2C(=O)O[C@H](c3ccccc3)[C@H](c3ccccc3)N2[C@H](c2ccc(OCCOC(=O)[C@H]3C[C@H]4C(=O)N5CCC[C@H]5C(=O)N4[C@H]3c3ccc(O)cc3)cc2)[C@@]12C(=O)Nc1ccc(I)cc12`: “inactive”; for `COc1ccc(CN(C)C[C@H]2OCCCC[C@@H](C)Oc3ccc(NC(=O)Nc4c(C)noc4C)cc3C(=O)N([C@H](C)CO)C[C@H]2C)cc1`: “inactive”.
As for `CCCCCCO[C@H](C)c1c(c/2[nH]c1/C=C/1\N=C(/C=C/3\NC4=C(CC(=O)C4=C3C)C3=N/C(=C2)[C@@H](C)[C@@H]3CCC(=O)O)C(=C1C)CC)C`, the cytotoxicity call is “active”.
The same measure for `C[C@@H]1CCCCO[C@@H](CN(C)C(=O)c2ccccc2)[C@@H](C)CN([C@H](C)CO)C(=O)c2cc(NC(=O)NC3CCCCC3)ccc2O1`: “inactive”.
